In article PMC8904574:
No constants are given. Whether binding was seen depends on the method and setting. For some assays here: Binding seen in cells or lysates may run through a third protein. Some entries that bind do so weakly or less than the wild type. Tags and fused reporters may be left off the sequences shown.

The chains behind the UniProt entries cited, without tags or fusion partners.
UniProt P50002: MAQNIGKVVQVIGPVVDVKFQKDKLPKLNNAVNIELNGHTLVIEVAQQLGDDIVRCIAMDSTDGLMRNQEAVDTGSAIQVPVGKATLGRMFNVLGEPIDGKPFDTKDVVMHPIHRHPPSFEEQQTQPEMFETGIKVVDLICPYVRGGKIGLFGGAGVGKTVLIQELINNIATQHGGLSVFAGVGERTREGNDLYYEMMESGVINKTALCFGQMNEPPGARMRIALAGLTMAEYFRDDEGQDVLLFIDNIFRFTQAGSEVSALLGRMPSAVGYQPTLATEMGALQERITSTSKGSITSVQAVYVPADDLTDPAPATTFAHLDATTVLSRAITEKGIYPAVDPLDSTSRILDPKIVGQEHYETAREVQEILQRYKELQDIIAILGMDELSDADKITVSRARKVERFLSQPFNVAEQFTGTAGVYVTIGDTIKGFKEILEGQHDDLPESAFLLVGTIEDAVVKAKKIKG
UniProt P50000: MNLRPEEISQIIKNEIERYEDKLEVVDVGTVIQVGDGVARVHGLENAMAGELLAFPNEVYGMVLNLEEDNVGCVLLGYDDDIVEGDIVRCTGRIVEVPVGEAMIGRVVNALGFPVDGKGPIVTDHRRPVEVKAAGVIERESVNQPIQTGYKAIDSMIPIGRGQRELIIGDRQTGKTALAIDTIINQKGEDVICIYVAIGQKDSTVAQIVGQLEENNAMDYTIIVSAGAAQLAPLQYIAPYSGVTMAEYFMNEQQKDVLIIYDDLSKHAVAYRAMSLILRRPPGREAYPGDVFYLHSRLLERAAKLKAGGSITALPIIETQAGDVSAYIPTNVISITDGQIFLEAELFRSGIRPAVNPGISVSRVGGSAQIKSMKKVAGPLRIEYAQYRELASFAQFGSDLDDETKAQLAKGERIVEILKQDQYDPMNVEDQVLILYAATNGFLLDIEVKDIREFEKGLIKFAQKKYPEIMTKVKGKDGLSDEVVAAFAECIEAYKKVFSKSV

What was measured:
[1] = molecular target: β-subunit of the F1 part of the Na+-F1FO-ATP synthase of Acetobacterium woodii, N-terminal His6 tag (Acetobacterium woodii) (UniProt P50002); assay: pull-down + native MS; subunits co-expressed in E. coli, complex co-purified by affinity chromatography (Ni-NTA) and SEC, analysed by LILBID-MS and SDS-PAGE
[2] = molecular target: T1, ε-subunit of the A. woodii F1 ATP synthase with His6 tag (Acetobacterium woodii) (UniProt P50009); assay: as above
T1 sequence: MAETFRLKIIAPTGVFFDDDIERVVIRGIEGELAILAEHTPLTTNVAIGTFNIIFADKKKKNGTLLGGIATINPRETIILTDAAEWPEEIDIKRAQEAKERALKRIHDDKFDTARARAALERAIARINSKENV

[3] = molecular target: α-subunit of the F1 part of the Na+-F1FO-ATP synthase of Acetobacterium woodii, N-terminal StrepI tag (Acetobacterium woodii) (UniProt P50000); assay: native MS; LILBID-MS; purified subunits incubated in 50 mM KPi, 200 mM NaCl, 2 mM ATP, 2 mM MgCl2, 10% glycerol, pH 7.4, 4 °C, 1 h; exchanged into 100 mM ammonium acetate, 2 mM ATP, 2 mM MgCl2, pH 7.4; both purified
[4] = molecular target: αβγ subcomplex seen in the in vitro assembly (Acetobacterium woodii) (UniProt P50000+P50002+P50005); assay: as above
[5] = molecular target: β-subunit of the F1 part of the Na+-F1FO-ATP synthase of Acetobacterium woodii, N-terminal His6 tag (Acetobacterium woodii) (UniProt P50002); assay: as above

B1: γ-subunit of the A. woodii F1 ATP synthase (untagged, only obtained co-expressed with other subunits) (protein, UniProt P50005 1-302)
chain: MAENVQDIKRRIKSVNSTMQITHAMELVASAKLRKSRELAEGRRPYFEAMIESIGRIVEKSGNARNIFMDQREVKKTAYIIITGDKGLAGGYNVNVAKLVEEHITDKENAVLFTVGSRGRDHFRNREYHIQGEYLGISERPNFFNAKEVTAIVMEGFKNGEYDEVYIAYTKFVSTITQHAQMMKLLPLSAEELITSGKVKTTEETKEEKSKMSDRELTIMTYEPEPEELLKYLIPNFVSSTVYGSMIESAASEQGARRTAMESATTNANEMIDGLTLQYNRVRQAAITQEISEIVGGAEALN
binding [1]: binds
binding [2]: binds weakly

B2: δ-subunit of the F1 part of the Na+-F1FO-ATP synthase of Acetobacterium woodii, C-terminal His6 tag (protein, UniProt Q9RMB3 1-180)
chain: MSLVASKYARALFDVAVDKDQLDEIFSDFKTATDLFSSEKKFMDLMLTPSLNTGEKKGILMRSLESLSNQYVKNYLMILMDKNRFEDIFDIYEAFRKLCNEHKNLVEARVLTVIPLDETLRIALEENLAKRFNKKVILENEIDKSILGGAVVYVGDQIIDGSIKNQLSQMKKQVNNLRLH
binding [3]: no binding
binding [4]: no binding
binding [5]: no binding
